In ChEMBL document CHEMBL4888484, “Replenishing the malaria drug discovery pipeline: Screening and hit evaluation of the MMV Hit Generation Library 1 (HGL1) against asexual blood stage Plasmodium falciparum ,using a nano luciferase reporter read-out” (2022):
The whole screen tested about 150,000 compounds, of which about 540 (0.36%) showed an effect of 50% or more. The list shows a part of the results.

system: Plasmodium falciparum; experiment: Primary screen in NF54 nanoGlo assay, in single point, at 2uM, 72h; a lower Z score goes with more inhibition; format: functional, Erythrocyte; conditions: timepoint 72 hour

Structure (SMILES) | % Inhibition [%] | Z score
Cc1ccc(CN(C(=O)COc2ccc(Br)cc2)c2ccccn2)o1 | 13 | -1.55
Cc1nnc([C@@H]2CCCN2Cc2c(F)cccc2Br)o1 | 9 | -1.1
CCn1cc(S(=O)(=O)N[C@H]2CC(=O)N(C(C)C)C2)cn1 | -12 | 2.21
Cc1sc(C(N)=O)cc1NC(=O)c1ccc(CNC(=O)c2cccs2)cc1 | -14 | 2.08
Cc1n[nH]c(C)c1CC(=O)NC1(C(=O)O)CCC1 | 3 | -0.25
CS(=O)(=O)CCn1cnc(-c2ccccc2)c1-c1nc2ccccc2[nH]1 | -13 | 1.59
Cc1c(C(=O)N2CCC(C)CC2)c(S(=O)(=O)N2CCc3ccccc32)c(C)n1C | -12 | 2.26
O=C1COCC(CC2CNc3ccccc32)N1 (configuration not stated) | -14 | 1.45
COc1cc(CNCc2ccccn2)ccc1OCc1ccccc1Cl | 8 | -0.92
O=C(Cn1nc(-c2ccc(F)cc2)c2cnc3ccccc3c21)Nc1cccc(F)c1 | -2 | 0.36
CCCc1cnc(C)nc1NCCS(=O)(=O)NC | -18 | 1.66
NC(=O)CN1CCC(NC2CCCCCCC2)CC1 | -2 | 0.28
O=C(CCOCC(F)(F)C(F)F)N1CCOCC12CCC2 | -4 | 0.46
CC(=O)N1CC(C(=O)NCc2ccco2)CCC1c1cccc(C(F)(F)F)c1 (configuration not stated) | -18 | 2.63
O=c1c2cc(Cl)ccc2ncn1Cc1coc(-c2ccccc2)n1 | -7 | 1.28
CCCn1ncc(-c2ccnc(NCC[C@H]3CCCN3C)n2)c1C | -2 | 0.27
CC(C)Oc1ccc([C@H]2CC3(C)NC(=O)C2C(=O)N3)cc1 | -3 | 0.34
Cc1nccc(CNC(=O)NCCOc2ccccc2C)n1 | 1 | -0.21
Cc1cc(CN(C)Cc2csnn2)no1 | -5 | 0.7

Structure (SMILES) | % Inhibition [%] | Z score
CCc1nn(C)cc1CNC(=O)NCc1ccc(C)cc1N(C)C | -10 | 1.8
COc1ccc(NC(=O)CCc2nnc[nH]2)cc1NC(=O)C1CCCCC1 | -12 | 1.66
Cc1ncnc(N(C)Cc2ccnn2C)c1C | -5 | 0.91
Cc1cc(C(=O)N2CCN(c3ncccn3)CC2)c(C)s1 | -6 | 1.15
CC(=O)c1cc(-c2ccc(C(=O)NCCN3CCCCC3)cc2)ccc1O | -10 | 1.43
Cc1csc2c(N3C[C@@H](C)[C@](C)(CN)C3)ncnc12 | -4 | 0.38
CCn1nccc1C(=O)N1CCCCCNC(=O)[C@@H]2CCC[C@@H]21 | -6 | 0.72
COc1cccn(CC(=O)N(C)C[C@H]2CCOC2)c1=O | -2 | 0.22
CCc1cc(CN(C)C(=O)c2cnc(-c3ccc(C)cc3)nc2O)on1 | 0 | 0.01
Cn1ccnc(N2CCC3(CC2)CNC(=O)c2ccccc2O3)c1=O | 2 | -0.4
C#CCNC(=O)[C@@H]1C(=O)N(Cc2ccccc2)N=C1C | 9 | -1.01
Cn1cc(-c2cc3n(n2)CCC(=O)N3CC(=O)N2CCN(c3ccc(F)cc3)CC2)c2ccccc21 | -2 | 0.46
O=C1NCCCCCN(C(=O)NCCc2ccccc2)[C@H]2CCCC[C@@H]12 | 8 | -1.05
C#CC[C@H](NC(=O)c1csc(C(C)(C)C)n1)C(=O)O | -4 | 0.48
CCc1nccn1CC(=O)N1CC[C@H](C2CCCCC2)C1 | 1 | -0.21
CCCCn1nc(-c2ccccc2)c2nc3ccccc3nc21 | 25 | -2.85
Cn1cc(C(N)=O)c(NCC2CCCCCC2)n1 | -6 | 0.78
O=C(Nc1ccccc1CN1CCCCC1)[C@H]1CC12CCC2 | 1 | -0.24
CC#CCN1C(=O)Nc2ccccc2S1(=O)=O | -6 | 0.8

Structure (SMILES) | % Inhibition [%] | Z score
Cc1cc2c(-c3cc(NCc4ccccn4)nc4[nH]ccc34)ncnc2s1 | -13 | 2.26
CC(C)N1CCN(C(=O)[C@@H]2CC(F)(F)CN2C2CN(S(C)(=O)=O)C2)CC1 | -8 | 0.96
O=C(C1CCN(S(=O)(=O)c2ccc(-c3ccn[nH]3)o2)CC1)N1CCCC1 | -5 | 0.82
CCC(=O)N1CCCN(S(=O)(=O)c2ccc(C)cc2)[C@H]1c1ccc(OC)cc1 | -3 | 0.43
CN(C)c1ccc(CN2C(=O)CN(C3CC3)C2=O)cn1 | 34 | -3.81
O=C(NC1CC1)[C@@H]1CCCN1S(=O)(=O)N1CCCCCC1 | 10 | -0.91
O=C(NCc1ccnc(OC2CCC2)c1)N1CCCO[C@@H](CF)C1 | -3 | 0.35
COc1ccc(N2CCN(c3cc(-n4nc(C)cc4C)ncn3)CC2)cc1 | -8 | 1.02
Cc1cc(CNC(=O)N2CCCC(F)(F)CC2)ccc1F | 0 | 0.01
COc1cc(NC(=O)Cn2c(C)nc(-c3ccccn3)cc2=O)cc(OC)c1 | -8 | 1.04
Cc1ccsc1CN(CCN(C)C)C(=O)NCc1nccn1C(C)C | -1 | 0.16
O=C(COc1ccccc1Br)NCC1(N2CCOCC2)CCCCC1 | -3 | 0.39
Cc1cc(N[C@H]2CC(=O)NC2=O)ncn1 | -18 | 2.33
COc1cnccc1C(C)NC(=O)NC(c1nc(C)cs1)C1CC1 (configuration not stated) | -2 | 0.32
CCc1ccc(CN(Cc2c(CC)nn(-c3cccc(C)c3)c2N2CCN(C)CC2)C2CC2)cc1 | -12 | 1.28
COc1cccc(CN2CC3(CCN(C(=O)c4cncn4C)CC3)CC2=O)c1 | -4 | 0.57
O=C(COc1ccc(N2C(=O)C3C4CCC(C4)C3C2=O)cc1)c1ccc(Cl)cc1 (configuration not stated) | -1 | 0.12
O=C(NCc1nc(C2CC2)no1)Nc1cccc(F)c1 | 7 | -1.38
